# PMC12820563, “FoxP3 forms a head-to-head dimer in vivo and stabilizes its multimerization on adjacent microsatellites”
# The list shows a part of the results.
# Target: T1, MBP-FoxP1dN (Mus musculus, UniProt P58462 326-579)
# T1 sequence: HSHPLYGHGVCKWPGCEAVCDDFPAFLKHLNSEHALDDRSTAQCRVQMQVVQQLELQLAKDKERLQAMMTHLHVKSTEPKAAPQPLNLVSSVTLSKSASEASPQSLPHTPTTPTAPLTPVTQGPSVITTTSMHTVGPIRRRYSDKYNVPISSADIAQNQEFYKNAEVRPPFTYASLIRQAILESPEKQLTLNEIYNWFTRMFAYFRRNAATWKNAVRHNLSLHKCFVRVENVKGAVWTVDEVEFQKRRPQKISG
# Experiment: PD-seq (MBP pull-down with sequencing); 20 mM Tris-HCl pH 7.5, 100 mM NaCl, 1.5 mM MgCl2, 0.4 uM protein, 0.1 uM dsDNA library, 30 min, room temperature, amylose pull-down; high values mean tight binding
# Conditions: protein: recombinant; tags: His6-MBP; chain copies: 2; dsDNA, one strand shown
# Summary of the method: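 His6-MBP-tagged mouse FoxP3 or FoxP1 fragment lacking the N-terminus, expressed in E. coli, was mixed at 0.4 µM with 0.1 µM Klenow-filled double-stranded degenerate DNA library. Incubation was 30 min at room temperature in Tris pH 7.5 buffer with NaCl and MgCl2. Complexes were caught on amylose resin and washed three times; DNA was released with proteinase K, PCR-barcoded and Illumina-sequenced. Binding is reads-per-million enrichment, pull-down over input, with replicates pooled.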
row,Sequence,binding signal
1,GATGATTGTTCTCCCAGCTGATGAATTAAAGTTCTCGAGTAAACAAATTTTCCTAATCTTTCTGTTCAAGCGCCATCTAC,0.927 RPM ratio (pull-down/input)
2,GATGATTGTTCTCCCAGCTGATGAATTACACCCCTCGAGTAAACAAATTTTCCTAATCTTTCTGTTCAAGCGCCATCTAC,1.13 RPM ratio (pull-down/input)
3,GATGATTGTTCTCCCAGCTGATGAATTAGGGCTTTCGAGTAAACAAATTTTCCTAATCTTTCTGTTCAAGCGCCATCTAC,0.909 RPM ratio (pull-down/input)
4,GATGATTGTTCTCCCAGCTGATGAATTGCGCTCATCGAGTAAACAAATTTTCCTAATCTTTCTGTTCAAGCGCCATCTAC,1.09 RPM ratio (pull-down/input)
5,GATGATTGTTCTCCCAGCTGATGAATTATCTGCATCGAGTAAACAAATTTTCCTAATCTTTCTGTTCAAGCGCCATCTAC,1.27 RPM ratio (pull-down/input)
6,GATGATTGTTCTCCCAGCTGATGAATTGCCGTTGTCGAGTAAACAAATTTTCCTAATCTTTCTGTTCAAGCGCCATCTAC,1.16 RPM ratio (pull-down/input)
7,GATGATTGTTCTCCCAGCTGATGAATTGGGATGGTCGAGTAAACAAATTTTCCTAATCTTTCTGTTCAAGCGCCATCTAC,0.863 RPM ratio (pull-down/input)
8,GATGATTGTTCTCCCAGCTGATGAATTTTTACAATCGAGTAAACAAATTTTCCTAATCTTTCTGTTCAAGCGCCATCTAC,1.23 RPM ratio (pull-down/input)
9,GATGATTGTTCTCCCAGCTGATGAATTCCCGTGATCGAGTAAACAAATTTTCCTAATCTTTCTGTTCAAGCGCCATCTAC,0.851 RPM ratio (pull-down/input)
10,GATGATTGTTCTCCCAGCTGATGAATTGCCCCTTTCGAGTAAACAAATTTTCCTAATCTTTCTGTTCAAGCGCCATCTAC,0.958 RPM ratio (pull-down/input)
11,GATGATTGTTCTCCCAGCTGATGAATTCTGAATGTCGAGTAAACAAATTTTCCTAATCTTTCTGTTCAAGCGCCATCTAC,0.902 RPM ratio (pull-down/input)
12,GATGATTGTTCTCCCAGCTGATGAATTCGTGAAATCGAGTAAACAAATTTTCCTAATCTTTCTGTTCAAGCGCCATCTAC,0.972 RPM ratio (pull-down/input)
13,GATGATTGTTCTCCCAGCTGATGAATTGGGCTCATCGAGTAAACAAATTTTCCTAATCTTTCTGTTCAAGCGCCATCTAC,0.827 RPM ratio (pull-down/input)
14,GATGATTGTTCTCCCAGCTGATGAATTCCCACTGTCGAGTAAACAAATTTTCCTAATCTTTCTGTTCAAGCGCCATCTAC,0.786 RPM ratio (pull-down/input)
15,GATGATTGTTCTCCCAGCTGATGAATTCGAAGATTCGAGTAAACAAATTTTCCTAATCTTTCTGTTCAAGCGCCATCTAC,0.857 RPM ratio (pull-down/input)
16,GATGATTGTTCTCCCAGCTGATGAATTCCCAGGCTCGAGTAAACAAATTTTCCTAATCTTTCTGTTCAAGCGCCATCTAC,0.756 RPM ratio (pull-down/input)
17,GATGATTGTTCTCCCAGCTGATGAATTCGTAGAATCGAGTAAACAAATTTTCCTAATCTTTCTGTTCAAGCGCCATCTAC,0.926 RPM ratio (pull-down/input)
18,GATGATTGTTCTCCCAGCTGATGAATTCAACACATCGAGTAAACAAATTTTCCTAATCTTTCTGTTCAAGCGCCATCTAC,1.3 RPM ratio (pull-down/input)
19,GATGATTGTTCTCCCAGCTGATGAATTGCTATACTCGAGTAAACAAATTTTCCTAATCTTTCTGTTCAAGCGCCATCTAC,1.08 RPM ratio (pull-down/input)
20,GATGATTGTTCTCCCAGCTGATGAATTTTTCACCTCGAGTAAACAAATTTTCCTAATCTTTCTGTTCAAGCGCCATCTAC,0.928 RPM ratio (pull-down/input)
21,GATGATTGTTCTCCCAGCTGATGAATTGCGTCATTCGAGTAAACAAATTTTCCTAATCTTTCTGTTCAAGCGCCATCTAC,1.24 RPM ratio (pull-down/input)

row,Sequence,binding signal
1,GATGATTGTTCTCCCAGCTGATGAATTCAATCTGTCGAGTAAACAAATTTTCCTAATCTTTCTGTTCAAGCGCCATCTAC,0.934 RPM ratio (pull-down/input)
2,GATGATTGTTCTCCCAGCTGATGAATTCATGAGCTCGAGTAAACAAATTTTCCTAATCTTTCTGTTCAAGCGCCATCTAC,0.771 RPM ratio (pull-down/input)
3,GATGATTGTTCTCCCAGCTGATGAATTGTGATAGTCGAGTAAACAAATTTTCCTAATCTTTCTGTTCAAGCGCCATCTAC,1.22 RPM ratio (pull-down/input)
4,GATGATTGTTCTCCCAGCTGATGAATTGCTTGTCTCGAGTAAACAAATTTTCCTAATCTTTCTGTTCAAGCGCCATCTAC,1.17 RPM ratio (pull-down/input)
5,GATGATTGTTCTCCCAGCTGATGAATTCGGCATATCGAGTAAACAAATTTTCCTAATCTTTCTGTTCAAGCGCCATCTAC,0.959 RPM ratio (pull-down/input)
6,GATGATTGTTCTCCCAGCTGATGAATTTGTAAGCTCGAGTAAACAAATTTTCCTAATCTTTCTGTTCAAGCGCCATCTAC,1.02 RPM ratio (pull-down/input)
7,GATGATTGTTCTCCCAGCTGATGAATTAGCCTCATCGAGTAAACAAATTTTCCTAATCTTTCTGTTCAAGCGCCATCTAC,0.905 RPM ratio (pull-down/input)
8,GATGATTGTTCTCCCAGCTGATGAATTCGAGTGATCGAGTAAACAAATTTTCCTAATCTTTCTGTTCAAGCGCCATCTAC,0.94 RPM ratio (pull-down/input)
9,GATGATTGTTCTCCCAGCTGATGAATTGGAGCCTTCGAGTAAACAAATTTTCCTAATCTTTCTGTTCAAGCGCCATCTAC,0.786 RPM ratio (pull-down/input)
10,GATGATTGTTCTCCCAGCTGATGAATTAGCGCTATCGAGTAAACAAATTTTCCTAATCTTTCTGTTCAAGCGCCATCTAC,0.909 RPM ratio (pull-down/input)
11,GATGATTGTTCTCCCAGCTGATGAATTCTATTGTTCGAGTAAACAAATTTTCCTAATCTTTCTGTTCAAGCGCCATCTAC,1.99 RPM ratio (pull-down/input)
12,GATGATTGTTCTCCCAGCTGATGAATTCTAAGACTCGAGTAAACAAATTTTCCTAATCTTTCTGTTCAAGCGCCATCTAC,0.821 RPM ratio (pull-down/input)
13,GATGATTGTTCTCCCAGCTGATGAATTCAATTACTCGAGTAAACAAATTTTCCTAATCTTTCTGTTCAAGCGCCATCTAC,1.08 RPM ratio (pull-down/input)
14,GATGATTGTTCTCCCAGCTGATGAATTAAGCTGTTCGAGTAAACAAATTTTCCTAATCTTTCTGTTCAAGCGCCATCTAC,0.846 RPM ratio (pull-down/input)
15,GATGATTGTTCTCCCAGCTGATGAATTCGACCCTTCGAGTAAACAAATTTTCCTAATCTTTCTGTTCAAGCGCCATCTAC,0.81 RPM ratio (pull-down/input)
16,GATGATTGTTCTCCCAGCTGATGAATTACTGTTTTCGAGTAAACAAATTTTCCTAATCTTTCTGTTCAAGCGCCATCTAC,2.6 RPM ratio (pull-down/input)
17,GATGATTGTTCTCCCAGCTGATGAATTTCGTGAGTCGAGTAAACAAATTTTCCTAATCTTTCTGTTCAAGCGCCATCTAC,0.804 RPM ratio (pull-down/input)
18,GATGATTGTTCTCCCAGCTGATGAATTTTGCAGCTCGAGTAAACAAATTTTCCTAATCTTTCTGTTCAAGCGCCATCTAC,0.865 RPM ratio (pull-down/input)
19,GATGATTGTTCTCCCAGCTGATGAATTCACAGCTTCGAGTAAACAAATTTTCCTAATCTTTCTGTTCAAGCGCCATCTAC,0.867 RPM ratio (pull-down/input)
20,GATGATTGTTCTCCCAGCTGATGAATTCTAGGTCTCGAGTAAACAAATTTTCCTAATCTTTCTGTTCAAGCGCCATCTAC,0.774 RPM ratio (pull-down/input)
21,GATGATTGTTCTCCCAGCTGATGAATTCTTATTGTCGAGTAAACAAATTTTCCTAATCTTTCTGTTCAAGCGCCATCTAC,2.49 RPM ratio (pull-down/input)

row,Sequence,binding signal
1,GATGATTGTTCTCCCAGCTGATGAATTTAAGCCTTCGAGTAAACAAATTTTCCTAATCTTTCTGTTCAAGCGCCATCTAC,0.856 RPM ratio (pull-down/input)
2,GATGATTGTTCTCCCAGCTGATGAATTGTAACCCTCGAGTAAACAAATTTTCCTAATCTTTCTGTTCAAGCGCCATCTAC,0.91 RPM ratio (pull-down/input)
3,GATGATTGTTCTCCCAGCTGATGAATTTAATGGTTCGAGTAAACAAATTTTCCTAATCTTTCTGTTCAAGCGCCATCTAC,0.868 RPM ratio (pull-down/input)
4,GATGATTGTTCTCCCAGCTGATGAATTCTTTAGATCGAGTAAACAAATTTTCCTAATCTTTCTGTTCAAGCGCCATCTAC,0.914 RPM ratio (pull-down/input)
5,GATGATTGTTCTCCCAGCTGATGAATTAAACTTATCGAGTAAACAAATTTTCCTAATCTTTCTGTTCAAGCGCCATCTAC,0.94 RPM ratio (pull-down/input)
6,GATGATTGTTCTCCCAGCTGATGAATTTCCCGTTTCGAGTAAACAAATTTTCCTAATCTTTCTGTTCAAGCGCCATCTAC,0.791 RPM ratio (pull-down/input)
7,GATGATTGTTCTCCCAGCTGATGAATTACTCGCTTCGAGTAAACAAATTTTCCTAATCTTTCTGTTCAAGCGCCATCTAC,0.986 RPM ratio (pull-down/input)
8,GATGATTGTTCTCCCAGCTGATGAATTGAAACCGTCGAGTAAACAAATTTTCCTAATCTTTCTGTTCAAGCGCCATCTAC,0.817 RPM ratio (pull-down/input)
9,GATGATTGTTCTCCCAGCTGATGAATTCCTTTATTCGAGTAAACAAATTTTCCTAATCTTTCTGTTCAAGCGCCATCTAC,0.944 RPM ratio (pull-down/input)
10,GATGATTGTTCTCCCAGCTGATGAATTCCGGCTTTCGAGTAAACAAATTTTCCTAATCTTTCTGTTCAAGCGCCATCTAC,0.857 RPM ratio (pull-down/input)
11,GATGATTGTTCTCCCAGCTGATGAATTTCTGGGATCGAGTAAACAAATTTTCCTAATCTTTCTGTTCAAGCGCCATCTAC,0.862 RPM ratio (pull-down/input)
12,GATGATTGTTCTCCCAGCTGATGAATTGGGCTTTTCGAGTAAACAAATTTTCCTAATCTTTCTGTTCAAGCGCCATCTAC,0.907 RPM ratio (pull-down/input)
13,GATGATTGTTCTCCCAGCTGATGAATTGCTCACATCGAGTAAACAAATTTTCCTAATCTTTCTGTTCAAGCGCCATCTAC,1.15 RPM ratio (pull-down/input)
14,GATGATTGTTCTCCCAGCTGATGAATTAAGCTATTCGAGTAAACAAATTTTCCTAATCTTTCTGTTCAAGCGCCATCTAC,0.965 RPM ratio (pull-down/input)
15,GATGATTGTTCTCCCAGCTGATGAATTGTCACCATCGAGTAAACAAATTTTCCTAATCTTTCTGTTCAAGCGCCATCTAC,1.13 RPM ratio (pull-down/input)
16,GATGATTGTTCTCCCAGCTGATGAATTGCAGATCTCGAGTAAACAAATTTTCCTAATCTTTCTGTTCAAGCGCCATCTAC,1.03 RPM ratio (pull-down/input)
17,GATGATTGTTCTCCCAGCTGATGAATTCATGGGATCGAGTAAACAAATTTTCCTAATCTTTCTGTTCAAGCGCCATCTAC,0.899 RPM ratio (pull-down/input)
18,GATGATTGTTCTCCCAGCTGATGAATTGGATTCATCGAGTAAACAAATTTTCCTAATCTTTCTGTTCAAGCGCCATCTAC,0.887 RPM ratio (pull-down/input)
19,GATGATTGTTCTCCCAGCTGATGAATTGAACTGGTCGAGTAAACAAATTTTCCTAATCTTTCTGTTCAAGCGCCATCTAC,0.74 RPM ratio (pull-down/input)
20,GATGATTGTTCTCCCAGCTGATGAATTGGGACACTCGAGTAAACAAATTTTCCTAATCTTTCTGTTCAAGCGCCATCTAC,0.901 RPM ratio (pull-down/input)
21,GATGATTGTTCTCCCAGCTGATGAATTGATCAGGTCGAGTAAACAAATTTTCCTAATCTTTCTGTTCAAGCGCCATCTAC,0.877 RPM ratio (pull-down/input)
